Assay results reported in ChEMBL document CHEMBL5308541, “MAIP: An Open-Source Tool to Enrich High-Throughput Screening Output and Identify Novel, Druglike Molecules with Antimalarial Activity” (ACS Med Chem Lett, 2023).
Hit rate of the full screen: of about 150,000 compounds, about 540 (0.36%) showed an effect of 50% or more. Some of the results follow.

test system: Plasmodium falciparum; test: Primary screen in NF54 nanoGlo assay, in single point, at 2uM, 72h; a lower Z score goes with more inhibition; type: functional, Erythrocyte; conditions: timepoint 72 hour

Compound | % Inhibition | Z score
CC(C)CCOc1ccc2[nH]c(-c3cc(N4CCC[C@@H]4CS(C)(=O)=O)ccn3)cc2c1 | 97% | -20.97
c1ccc(N2CCN(CCN3CCC[C@@]4(CCNC4)C3)CC2)cc1 | -12% | 1.89
OC[C@H]1CN(c2ncc(Cl)c(Nc3ccc(F)cc3)n2)CCO1 | -6% | 0.87
COc1cc(Cn2c(NCCO)nc3ccccc32)sn1 | -4% | 0.66
Cc1cccc2c(Nc3ccc(C#N)cc3)ccnc12 | -12% | 2.5
COc1ccc2oc(CNCc3cnc4n3CCCC4)cc2c1 | -2% | 0.32
CCc1c[nH]c2ncnc(N3CC[C@H](CNc4cc(C)ccn4)C3)c12 | -11% | 2.39
Cc1cc(NC[C@H]2CC(=O)N(C3CCCC3)C2)nc2cc(F)ccc12 | 1% | -0.11
O=C(NCCNc1cc(C2CCNCC2)ncn1)c1ccc(F)cc1 | -4% | 0.81
COc1cc(CNCC(CN(C)C)C(O)c2ccccc2)cc(OC)c1OC(F)F (stereo not given) | -9% | 1.6
COc1ccc2[nH]nc(CN3CCCC[C@@H]3CCN3CCCC3=O)c2c1 | 3% | -0.69
CN(C(=O)c1ccnc2ccccc12)[C@H]1C[C@H]2C[C@@H](O)C[C@H]2C1 | 0% | -0.04
Cc1c(CNC2CC(C)(C)N(C)C(C)(C)C2)cnn1CCN1CC=CCC1 | -9% | 1.31
NCCc1nnc(NCc2ccc3sccc3c2)o1 | 1% | -0.18
Nc1nc(NCCc2c[nH]c3ccccc23)cc(C2CC(O)C2)n1 (stereo not given) | 6% | -1.22
CCCN1CCC(CNc2ncnc3ccc(S(C)(=O)=O)cc23)CC1 | 2% | -0.32
COc1cccc(Nc2nn3c(=O)c4ccc(Cl)cc4nc3s2)c1 | -5% | 0.72
OCC1CCCC(Nc2ncc(F)c(N3CCCC3)n2)C1 (stereo not given) | -3% | 0.63
COCCN(C)CC1CN(c2ncc(F)c(N3CCOCC3)n2)CC1CO (stereo not given) | -16% | 2.75
C[C@H]1COCCN1c1ccnc(N2CCOC[C@@H]2C)n1 | -2% | 0.32
Fc1ccccc1N1CCC(NC2COCC2Cc2ccnc3ccccc23)CC1 (stereo not given) | -4% | 0.83
CNc1nc(NC(Cc2ccncc2)[C@H]2C[C@@H](O)C2)ncc1F (stereo not given in full) | -2% | 0.39
C[C@H](NC(=O)CN(C)CCN(C)C1CCN(C)CC1)c1cccc2ccccc12 | 9% | -2.01
CC(C)c1cnc(NC2COCC2Cc2ccnc3ccccc23)nc1 (stereo not given) | -20% | 4.4
O=C(NCCN1CC[C@H](c2ccccc2)C1)c1cccc(-c2cnccn2)c1 | -18% | 3.14
Oc1ccc(OC(F)(F)F)cc1-c1ccc2nc[nH]c2c1 | -9% | 1.58
CC1(C)CC(Nc2cc(-c3ccccc3)ncn2)CC(C)(C)N1 | -14% | 2.11
Clc1cnc(NCCCNc2ncc(Cl)cn2)nc1 | -9% | 1.84

Compound | % Inhibition | Z score
CN(C)c1ncc(CNC[C@H](O)c2ccc(F)cc2)s1 | -5% | 0.76
Cc1cc(S(=O)(=O)NCc2snnc2C(C)C)c(Cl)cc1F | -6% | 1.29
CCOc1cc(N2CCN(C(C)C)CC2)ccc1NC(=O)c1ccnc(OC2CCC2)c1 | -7% | 1.19
Cc1ccc(NCCCNCc2cnc(N3CCCC3)s2)nc1 | -3% | 0.63
COC(=O)N(C)c1ccc(NCc2cc3cc(OC)ccc3o2)cc1 | 5% | -0.99
CN(CCCNc1nnc([C@H](N)c2ccccc2)o1)C1CCCC1 | -7% | 1.21
N#Cc1ccc(Nc2ccnc3c(F)cc(F)cc23)cc1 | -2% | 0.52
CN1CCC(CNC(=O)[C@@H]2CCCN3CCCC[C@H]23)(N(C)C)CC1 | 1% | -0.24
CC1CCN([C@@H](CNc2cc(N3CCN(C)C(=O)C3)ncn2)c2ccccc2)CC1 | -1% | 0.29
CN1CCN(C[C@H]2CCCN(CCCn3cccn3)C2)CC1 | -10% | 1.52
CC(=O)N1CC2CN(c3nc4c(cc3C#N)CCCC4)CC2(C(=O)O)C1 (stereo not given) | -8% | 1.54
COCCOC1CCN(Cc2cnc(NC(C)C)nc2)CC1 | -5% | 0.94
Cn1cc(-c2nc(CC3CC3)cs2)nn1 | -4% | 0.81
CC(CO)C(C)NC(=O)c1cc(Br)cc2[nH]c(=O)[nH]c12 (stereo not given) | -15% | 2.27
CCN1CC(NC(=O)c2ccc(-c3cncc(C(C)(C)O)c3)cc2)C(OC)C1 (stereo not given) | -7% | 1.15
CN(C)Cc1ccc([C@@H]2CCCN2c2nccc(N3CCC(O)CC3)n2)cc1 | -3% | 0.45
CCN(CCC#N)c1ncc(Cl)cn1 | -2% | 0.39
C[C@]1(C(=O)N2CCC(Cc3ccccc3C(=O)O)CC2)CC1(F)F | 9% | -1.99
C[C@@H](CCc1ccc(F)cc1)NCC1CCN(C)CC1 | 8% | -1.37
O=C(Nc1ccc2cnccc2c1)N1CC[C@H](N2CCNCC2)C1 | -19% | 3.3
c1cnc2nc(Nc3ccc(N4CCCC4)nc3)ccc2n1 | 7% | -1.29
CN1CCN(C[C@H]2CCCN(C(=O)c3ccnc4ccccc34)C2)CC1 | 5% | -1.03
CC(C)(C)n1ncc2c(NCc3ccc4cccnc4c3O)ncnc21 | 31% | -6.09
C[C@H]1CCCN(CCOc2ccccc2CN2CCN(c3cccnc3)CC2)C1 | -2% | 0.3
CC1c2[nH]c3ccccc3c2CCN1CC(O)c1ccc(OC(F)(F)F)cc1 (stereo not given) | -4% | 0.7
Cc1nc(CN2CCC(Nc3ncnc4sccc34)C(O)C2)cs1 (stereo not given) | -1% | 0.11
c1cc2ncnc(NCc3ccnc(OC4CCOCC4)c3)c2cn1 | -11% | 2.31
